Laboratory results published in the supplement of paper PMC11741623.
The list shows a part of the results. Interaction screen of human proteins with wild-type SARS-CoV-2 proteins by split-DHFR complementation in yeast, 1 µg/mL methotrexate. Value = fitness of the pair (three or more lineages) minus that of the viral protein without a human partner, on a scale set by negative (0) and fused positive (1) controls, mean of up to three cultures; higher = more likely to interact. Active = false discovery rate below 0.05 (one-sided t-test) in at least one culture. Nearly all pairs are not hits, and differences among them are mostly noise (correlation between cultures about 0.3); most hits were seen in one culture only. Human sequences are the Swiss-Prot entries looked up by gene name; the clone may be another isoform. NSP2 values were corrected by the authors for a growth advantage. Listed are human proteins with a hit and a random twelfth of the others.

How the values were obtained:
Experiment in all cases: yeast fitness gain over the viral ORF with no human partner (scaled fitness); higher = more likely to interact
[1] = test system: SARS-CoV-2 M
Description: (§1)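 Split mouse DHFR complementation in pooled diploid yeast: human ORFeome clones carry one fragment and viral ORFs the other; barcoded lineages compete in 1 µg/mL methotrexate and fitness is read by barcode sequencing in up to three cultures.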

[2] = test system: SARS-CoV-2 NSP10
Description: as §1

[3] = test system: SARS-CoV-2 NSP13
Description: as §1

[4] = test system: SARS-CoV-2 NSP14
Description: as §1

[5] = test system: SARS-CoV-2 NSP15
Description: as §1

[6] = test system: SARS-CoV-2 NSP16
Description: as §1

[7] = test system: SARS-CoV-2 NSP1
Description: as §1

[8] = test system: SARS-CoV-2 NSP4
Description: as §1

[9] = test system: SARS-CoV-2 NSP5
Description: as §1

[10] = test system: SARS-CoV-2 NSP6
Description: as §1

[11] = test system: SARS-CoV-2 NSP7
Description: as §1

[12] = test system: SARS-CoV-2 NSP8
Description: as §1

[13] = test system: SARS-CoV-2 NSP9
Description: as §1

[14] = test system: SARS-CoV-2 ORF10
Description: as §1

[15] = test system: SARS-CoV-2 ORF3A
Description: as §1

[16] = test system: SARS-CoV-2 ORF3B
Description: as §1

[17] = test system: SARS-CoV-2 ORF6
Description: as §1

[18] = test system: SARS-CoV-2 ORF7A
Description: as §1

[19] = test system: SARS-CoV-2 ORF7B
Description: as §1

[20] = test system: SARS-CoV-2 ORF8
Description: as §1

[21] = test system: SARS-CoV-2 S
Description: as §1

[22] = test system: SARS-CoV-2 NSP2
Description: as §1

[23] = test system: SARS-CoV-2 N
Description: as §1

[24] = test system: SARS-CoV-2 E
Description: as §1

Measured: yeast fitness gain

HEATR1, Q9H583
inactive: [1] -0.0191 | [2] 0.048 | [3] 0.0154 | [4] -0.125 | [5] -0.332 | [6] -0.049 | [7] 0.0423 | [8] 0.154 | [9] 0.00227 | [10] -0.102 | [11] 0.00132 | [12] -0.104 | [13] -0.0233 | [14] 0.0168 | [15] -0.0458 | [16] -0.0279 | [17] 0.039 | [18] 0.0786 | [19] -0.0138 | [20] 0.00425 | [21] 0.0198

IDH3B, O43837
inactive: [1] 0.018 | [2] 0.0286 | [3] 0.0279 | [4] -0.263 | [5] -0.0318 | [7] -0.0673 | [22] -0.12 | [9] -0.0115 | [10] -0.1 | [11] 0.173 | [12] 0.0419 | [23] 0.179 | [14] 0.00774 | [15] -0.0519 | [16] 0.0742 | [17] -0.0224 | [18] 0.0391 | [19] 0.00714 | [20] 0.0238 | [21] 0.0603

ZNF785, A8K8V0
inactive: [24] -0.151 | [1] 0.00873 | [2] 0.0149 | [3] -0.00691 | [4] -0.0206 | [5] -0.0283 | [6] -0.0104 | [7] -0.0822 | [22] -0.182 | [8] -0.0398 | [9] 0.0521 | [10] -0.0402 | [11] -0.00403 | [12] 0.0255 | [13] 0.0453 | [23] -0.0503 | [14] 0.013 | [15] 0.0299 | [16] 0.0164 | [17] -0.0148 | [18] 0.0341 | [19] -0.0488 | [20] 0.0417 | [21] 0.0229

POLD2, P49005
inactive: [24] -0.149 | [1] -0.00285 | [2] 0.0271 | [3] 0.00545 | [4] -0.153 | [5] -0.0185 | [6] 0.0075 | [7] -0.0413 | [22] -0.207 | [8] 0.0172 | [9] -0.00261 | [10] 0.0341 | [11] -0.0276 | [12] 0.0192 | [13] 0.0172 | [23] -0.03 | [14] 0.0399 | [15] -0.0277 | [16] -0.000908 | [17] 0.0403 | [18] 0.0322 | [19] 0.0125 | [20] 0.049 | [21] -0.0803

ZNF673, Q5JUW0
inactive: [24] -0.0947 | [1] -0.03 | [2] -0.0892 | [3] 0.0301 | [4] -0.13 | [5] 0.0985 | [6] 0.079 | [7] -0.166 | [22] -0.216 | [8] -0.352 | [9] 0.0165 | [10] -0.0291 | [11] -0.0625 | [12] -0.044 | [13] -0.051 | [14] 0.0462 | [15] 0.0475 | [16] 0.0705 | [17] 0.0357 | [18] 0.0225 | [19] 0.0153 | [20] 0.0872 | [21] -0.0364

CABP5, Q9NP86
inactive: [24] -0.0749 | [1] -0.041 | [2] 0.00176 | [3] -0.0628 | [5] -0.000497 | [6] 0.0577 | [7] -0.00512 | [22] -0.171 | [9] 0.0688 | [10] 0.123 | [11] 0.00817 | [12] -0.0293 | [13] -0.422 | [14] -0.18 | [15] -0.104 | [16] 0.0141 | [17] -0.0131 | [18] -0.0518 | [19] -0.112 | [20] -0.171 | [21] -0.0157
